In PubChem BioAssay AID360 (National Center for Advancing Translational Sciences (NCATS), 2006) one finds Potency data, which are given here for 90 compounds.

Structures are written as SMILES. In all, about 48,000 compounds went through this assay and about 550 (1.1%) were called active. Inconclusive results (about 4%) are left out. Cut-off read from the data, not from the text of the source: active = potency below about 15 µM; inconclusive = mostly about 16 µM to 33 µM; inactive = weaker than that. Some of the results follow.
Potency is the fitted concentration of half-maximal effect.

The target of the assay is Lysosomal acid glucosylceramidase (Homo sapiens) (UniProt P04062). As to the kind of experiment: Glucocerebrosidase.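 Note: the screen sought inhibitors.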 The following applies: purified enzyme, resorufin glucoside fluorescence (screen aimed at inhibitors), 20 min; series mostly up to 77 µM. Summed up: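 Normal human glucocerebrosidase (0.2 nM final) was assayed with resorufin β-D-glucopyranoside (30 uM final) in 50mM citric acid/KH2PO4, 10mM sodium taurocholate, 0.01% tween-20, pH 5.9. Compounds were titrated; fluorescence (Ex 548, Em 600) read after 20 min at RT.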
UniProt P04062, sequence (P04062 whole entry, looked up): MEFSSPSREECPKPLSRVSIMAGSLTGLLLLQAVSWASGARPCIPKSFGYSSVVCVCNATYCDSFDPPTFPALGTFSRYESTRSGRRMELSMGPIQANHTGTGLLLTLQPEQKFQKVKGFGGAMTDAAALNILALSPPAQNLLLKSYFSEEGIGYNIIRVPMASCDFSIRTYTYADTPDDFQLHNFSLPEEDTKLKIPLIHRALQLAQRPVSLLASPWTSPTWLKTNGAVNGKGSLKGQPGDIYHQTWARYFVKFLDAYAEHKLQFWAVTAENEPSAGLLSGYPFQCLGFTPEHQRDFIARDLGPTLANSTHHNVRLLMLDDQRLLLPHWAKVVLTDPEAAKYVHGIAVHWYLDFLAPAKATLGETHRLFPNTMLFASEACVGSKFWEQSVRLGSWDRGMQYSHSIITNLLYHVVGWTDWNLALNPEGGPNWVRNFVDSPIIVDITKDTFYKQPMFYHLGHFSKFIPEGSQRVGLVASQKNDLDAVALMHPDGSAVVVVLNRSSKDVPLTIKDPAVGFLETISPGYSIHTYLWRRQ
As for `CCOc1ccccc1OCC(=O)NCc1ccco1`, the Potency is inactive: > 76.9 µM.

For the compound `Cc1sc2c(c1C)CN(C1CC(C)(C)NC(C)(C)C1)CN2C(=O)c1ccco1`, the Potency was inactive: > 76.9 µM.

`COc1ccccc1N1CCN(c2cc(=O)n(-c3ccccc3Cl)c(=O)[nH]2)CC1`: the Potency was inactive: > 76.9 µM.

For the compound `Cc1ccc(-n2nnc3c(=O)n(CC(=O)N4CCCC4)cnc32)cc1`, the Potency is inactive: > 76.9 µM.

For `O=C(COC(=O)c1ccc2c(c1)OCO2)NC1CCS(=O)(=O)C1` (stereo not given), the Potency was inactive: > 76.9 µM.

As for `CC(C)(CSc1nncn1/N=C/c1ccco1)NS(=O)(=O)c1ccc(Cl)cc1`, the Potency is inactive: > 76.9 µM.

Regarding `CCn1c(SCC(=O)N2CCN(c3ccccc3)CC2)nnc1-c1ccoc1C`, the Potency was inactive: > 76.9 µM.

Take `O=C1C2C(C(=O)N1Cc1cccnc1)C1C=CC2C12CC2` (stereo not given): the Potency was inactive: > 76.9 µM.

Consider `CCOC(=O)COc1ccc(C(=O)NC2CCCCC2)cc1`, for which the Potency was inactive: > 76.9 µM.

With `CCN(Cc1ccccc1)C(c1ccncc1)c1nnnn1C(C)(C)C` (stereo not given), the Potency was inactive: > 76.9 µM.

In the case of `CCOC(=O)C1CCCN(C(=O)c2c(-c3ccccc3Cl)noc2C)C1` (stereo not given), the Potency is inactive: > 76.9 µM.

Regarding `COc1cccc(-c2nnc(SCC(N)=O)n2-c2ccc(Cl)cc2)c1`, the Potency was inactive: > 76.9 µM.

Take `CC(NC(=O)COc1cc(=O)n(C)c2ccccc12)c1ccc2c(c1)OCCO2` (stereo not given): the Potency is inactive: > 76.9 µM.

Turning to `COc1cc(OC)c(C2=NOC(C(=O)NCc3ccc4c(c3)OCO4)C2)cc1Cl` (stereo not given), the Potency was inactive: > 76.9 µM.

On to `Cc1ccc(NS(=O)(=O)c2ccc(CCC(=O)O)cc2)cc1`, for which the Potency was inactive: > 76.9 µM.

On to `COc1ccc(S(=O)(=O)CCC(=O)N2c3ccccc3CC2C)cc1` (stereo not given), for which the Potency was inactive: > 76.9 µM.

For the compound `COCc1cc(=O)[nH]c(/N=C(\N)Nc2ccc(Oc3ccccc3)cc2)n1`, the Potency is inactive: > 76.9 µM.

For `COCCCNS(=O)(=O)c1ccc2c(c1)CCN2C(C)=O`, the Potency is inactive: > 76.9 µM.

`CCOC(=O)c1ccccc1NC(=O)CN1CCC(n2nnc3cc(F)ccc32)CC1`: the Potency was inactive: > 76.9 µM.

On to `COCC(=O)Oc1c(S(=O)(=O)c2ccc(C)cc2)c(C)nn1-c1ccccc1`, for which the Potency was inactive: > 76.9 µM.

As for `CCOc1cc(-c2noc(-c3cccnc3)n2)ccc1OC`, the Potency is inactive: > 76.9 µM.

As to `COc1ccc2cc3c(N)c(C(=O)NCc4ccco4)sc3nc2c1`, the Potency was inactive: > 76.9 µM.

For the compound `CCCCN(CC)S(=O)(=O)c1ccc(C(=O)Nc2nnc(-c3ccccc3Cl)o2)cc1`, the Potency was inactive: > 76.9 µM.

Turning to `O=C(CCn1nnc2ccccc21)Nc1nnc(-c2ccccc2F)s1`, the Potency is inactive: > 76.9 µM.

As to `Cc1cnc(NC(=O)CN2C(=O)C3CC=CCC3C2=O)s1` (stereo not given), the Potency is inactive: > 76.9 µM.

In the case of `O=C(NC1CC2CCCC(C1)N2Cc1cccs1)N1CCOCC1` (stereo not given), the Potency was inactive: > 76.9 µM.

As for `CCCOc1ccc2oc(=O)c3c(c2c1)CCCN3C(=O)CN(C)Cc1ccccc1`, the Potency was inactive: > 76.9 µM.

`CCC(C(=O)c1ccc(O)cc1)c1ccccc1` (stereo not given): the Potency is inactive: > 76.9 µM.

With `COC(=O)CSc1n[nH]c(-c2ccncc2)n1`, the Potency was inactive: > 76.9 µM.

Regarding `Cc1ccc(-n2c(SCC(=O)NCc3cccs3)nnc2-c2ccoc2C)cc1`, the Potency was inactive: > 76.9 µM.

Consider `CN(Cc1ccccc1)C(=O)C1CCN(Cc2ccc(F)cc2)CC1`, for which the Potency is inactive: > 76.9 µM.

`C=CCn1c(SCC(=O)OCc2ccccc2)nc2c1c(=O)n(C)c(=O)n2C`: the Potency was inactive: > 76.9 µM.

With `COc1ccc2c(c1)CCCN2C(N)=O`, the Potency is inactive: > 76.9 µM.

In the case of `CC(C)C(=O)Nc1ccc(NC(=O)c2ccco2)cn1`, the Potency was inactive: > 76.9 µM.

As to `CCOC(=O)c1cc2c(=O)n3ccccc3nc2n(CC(C)C)c1=NC(=O)c1ccco1`, the Potency is inactive: > 76.9 µM.

With `c1cncc(CSc2nnc(-c3cccnc3)n2Cc2ccco2)c1`, the Potency is inactive: > 76.9 µM.

`COc1ccc(CCNc2ncnc3[nH]ncc23)cc1OC`: the Potency is inactive: > 76.9 µM.

As to `COc1ccccc1-c1c(C)nn2c(N3CCC4(CC3)OCCO4)cc(C)nc12`, the Potency was inactive: > 76.9 µM.

`CCc1nc2ccc(C(=O)NCc3ccco3)cc2nc1CC`: the Potency is inactive: > 76.9 µM.

As for `COc1ccc(C2=NO[C@@H]3C(=O)N(c4ccc5c(c4)OCCO5)C(=O)[C@H]23)cc1OC`, the Potency was inactive: > 76.9 µM.

As to `Cc1cc(C)n(-c2ccc(C(=O)NCc3ccc4c(c3)OCO4)cc2)n1`, the Potency is inactive: > 76.9 µM.

For the compound `CCc1nnc(NC(=O)CSc2nnc(COc3ccc(C)cc3)n2-c2ccccc2)s1`, the Potency was inactive: > 76.9 µM.

Regarding `COc1ccc(C)cc1S(=O)(=O)N(CC(N)=O)Cc1ccccc1`, the Potency was inactive: > 76.9 µM.

With `CCOc1cc(N2CCOCC2)c(OCC)cc1NC(=O)Cc1ccc(OC)c(OC)c1`, the Potency is inactive: > 76.9 µM.

For `COc1ccc(C(=O)OCc2cc3cccc(C)c3[nH]c2=O)cc1`, the Potency is inactive: > 76.9 µM.

On to `Cn1c(SCC(=O)NCc2cccs2)nnc1-c1ccncc1`, for which the Potency was inactive: > 76.9 µM.

As for `Cc1noc(C)c1C(=O)Nc1sc2c(c1C(N)=O)CCCCC2`, the Potency was inactive: > 76.9 µM.

As for `Cn1c(NC(=O)C2c3ccccc3Oc3ccccc32)cc(=O)n(C)c1=O`, the Potency is inactive: > 76.9 µM.

For `CC1Cc2ccccc2N1C(=O)CCNS(=O)(=O)c1cccc2nsnc12` (stereo not given), the Potency is inactive: > 76.9 µM.

Regarding `O=C(O)c1cc(-c2ccco2)nc2ccc(Br)cc12`, the Potency is inactive: > 76.9 µM.

Turning to `COC(=O)[C@H](Cc1ccccc1)NC(=O)N1CCN(Cc2ccccc2)CC1`, the Potency is inactive: > 76.9 µM.

Regarding `CCNS(=O)(=O)c1ccc(OC)c(C)c1`, the Potency was inactive: > 76.9 µM.

In the case of `O=C1CSC(=Nc2cc(Cl)ccc2Cl)N1`, the Potency is inactive: > 76.9 µM.

Turning to `CCOc1ccc(Nc2nc3c(c(=O)[nH]2)CCC3)cc1`, the Potency is inactive: > 76.9 µM.

Turning to `CC(=O)Nc1ccccc1C(=O)N1CC(C)OC(C)C1` (stereo not given), the Potency was inactive: > 76.9 µM.

With `CCN(C(=O)COC(=O)c1cc(C)n(-c2ccc(F)cc2)c1C)C1CCS(=O)(=O)C1` (stereo not given), the Potency is inactive: > 76.9 µM.

In the case of `COc1cc(C(=S)N(C)C)ccc1O`, the Potency was inactive: > 76.9 µM.

Take `Cn1c(C(=O)NCCN2CCc3ccccc3C2)cc2c(=O)[nH]c3ccccc3c21`: the Potency is inactive: > 76.9 µM.

Consider `Cc1cccc(N(Cc2ccccc2F)S(C)(=O)=O)c1`, for which the Potency was inactive: > 76.9 µM.

Turning to `CCCSc1nc(N)c(C#N)c(-c2ccc(C)cc2)c1C#N`, the Potency is inactive: > 76.9 µM.

Consider `Nc1ccc2oc(=O)c3ccccc3c2c1`, for which the Potency is inactive: > 76.9 µM.

As for `COc1ccccc1-c1nnc(SCC(=O)Nc2cc(C)on2)o1`, the Potency was inactive: > 76.9 µM.

For `O=C(CN(c1ccccc1)S(=O)(=O)c1ccc(F)cc1)N1CCCCCC1`, the Potency was inactive: > 76.9 µM.

Turning to `CC(=O)OCC(OC(C)=O)C(OC(C)=O)C(OC(C)=O)C(=O)Nc1ccc(C)cc1C` (stereo not given), the Potency is inactive: > 76.9 µM.

For the compound `CCc1nnc(NC(=O)C2Cc3ccccc3CN2S(=O)(=O)c2cccs2)s1` (stereo not given), the Potency is inactive: > 76.9 µM.

Regarding `Cc1cc(=O)n(-c2ccc(O)cc2)[nH]1`, the Potency result was “inactive”.

With `CC(C(=O)O)N1C(=O)CSC1=S` (stereo not given), the Potency was inactive: > 76.9 µM.

On to `O=C(O)c1[nH]c2ccc(Cl)cc2c1CC(=O)N1CCN(C(=O)c2ccco2)CC1`, for which the Potency was inactive: > 76.9 µM.

In the case of `CC(C)(C)N1C(=O)c2ccc(C(=O)NCc3ccco3)cc2C1=O`, the Potency was inactive: > 76.9 µM.

With `OCc1csc(=Nc2ccccc2)n1-c1ccccc1`, the Potency was inactive: > 76.9 µM.

For the compound `CC(=O)Nc1ccc(S(=O)(=O)NCCc2csc(C)n2)cc1`, the Potency is inactive: > 76.9 µM.

Consider `Cc1cc(C)cc(-n2ccnc2SCC(=O)Nc2ccc3c(c2)OCCO3)c1`, for which the Potency was inactive: > 76.9 µM.

Consider `CCN1C(=O)C2(/C(=C(\O)c3ccc4c(c3)OCCO4)C(=O)C(=O)N2CCCOC)c2ccccc21` (stereo not given), for which the Potency was inactive: > 76.9 µM.

`Cc1cccc(NC(=O)c2c(O)c3cccc4c3n(c2=O)CCC4)n1`: the Potency is inactive: > 76.9 µM.

Consider `CCOc1ccc(N2CC(C(=O)NCc3ccc(F)cc3)CC2=O)cc1` (stereo not given), for which the Potency was inactive: > 76.9 µM.

Turning to `Cc1cccc(Nc2ncccc2C(=O)O)c1C`, the Potency is inactive: > 76.9 µM.

As for `O=C(CSc1nnc(-c2cnccn2)n1Cc1ccco1)c1ccc2ccccc2c1`, the Potency was inactive: > 76.9 µM.

In the case of `Cc1cc(NC(=O)CSc2nc(C(C)C)nc3sc(C)c(C)c23)no1`, the Potency is inactive: > 76.9 µM.

On to `CCC(=O)n1nc(-c2ccc(OC)cc2)nc1N`, for which the Potency is inactive: > 76.9 µM.

Turning to `COc1ccc(NS(=O)(=O)c2ccc3oc(Nc4ccc5c(c4)OCCO5)nc3c2)cc1`, the Potency was inactive: > 76.9 µM.

In the case of `Cn1c(=O)c2c(nc(CN3CCc4ccccc4C3)n2Cc2ccccc2F)n(C)c1=O`, the Potency was inactive: > 76.9 µM.

For `c1cnc(Oc2ccc(-c3nnco3)cc2)cn1`, the Potency is inactive: > 76.9 µM.

As for `CC(=O)N(c1c(C)n(C)n(-c2ccccc2)c1=O)C1(C(=O)NC2CCCC2)CCCCC1`, the Potency is inactive: > 76.9 µM.

As to `COC(=O)c1cc(C(=O)OC)cc(-n2c(C)cc(C(=O)CC#N)c2C)c1`, the Potency was inactive: > 76.9 µM.

`CCn1c(Cc2ccccc2)nnc1SCC(=O)Nc1nnc(-c2ccccc2)s1`: the Potency is inactive: > 76.9 µM.

Take `O=C(Nc1cccc(C(=O)N2CCOCC2)c1)c1cccnc1`: the Potency was inactive: > 76.9 µM.

For `O=C(CN1C(=O)COc2ccccc21)NCc1ccc(C(=O)O)cc1`, the Potency was inactive: > 76.9 µM.

Consider `CCc1ccc2oc(-c3cc(N)cc(C)c3O)nc2c1`, for which the Potency is inactive: > 76.9 µM.

Turning to `O=C(COC(=O)c1ccc(Cl)c(S(=O)(=O)N2CCCC2)c1)NC1CCCC1`, the Potency was inactive: > 76.9 µM.

Turning to `CCC(=O)Nc1ccc(Cl)c(NC(=O)c2cccnc2)c1`, the Potency was inactive: > 76.9 µM.
